# According to PubChem BioAssay AID651820 (National Center for Advancing Translational Sciences (NCATS), 2012):
# Hit rate of the full screen: of about 340,000 compounds, about 12,000 (3.5%) were called active. Inconclusive results, whose numbers are uncertain, are shown with a selection of clear calls. Calls come from the whole dose curve; as a rule, active = well fitted inhibition curve with a large enough effect; inconclusive = small, poorly fitted or top-dose-only effect, or another doubt; inactive = no such curve, though single readings can be large or run the other way. Potencies of inconclusive entries are left out as doubtful fits.
# Assay: qHTS Assay for Inhibitors of Hepatitis C Virus (HCV)
# Settings: Huh7.5.1 HCVcc-Cre (HCVcc is cell-culture hepatitis C virus) infection, luciferase reporter, 44 h; activity change, negative = inhibition: at 41.8 µM (top of the series)
# Summary of the method: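 Seed cells (1,000/well) for 4 h; treat with compound and infect with HCVcc-Cre, moi about 0.5. Incubate 44 h, then detect luciferase activity.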
# % is set by controls: 0 for no effect and ±100 for the full control effect; potency is the fitted concentration of half-maximal effect; tags give direction and shape of the fitted curve.
Compound,Potency,"activity change, negative = inhibition"
Cc1ccc(-c2cc(C(F)F)n3ncc(C(=O)N4CCCCC4c4cccnc4)c3n2)cc1 (centres undefined),"inconclusive [inhibitor, single point]",
O=C(CCn1c(=O)[nH]c2ccsc2c1=O)NCc1ccc(F)cc1,,inactive: 14.2%
CC1(c2nnc(-c3cccc(Cl)c3)o2)CC(c2c(Cl)cccc2Cl)=NO1 (centres undefined),,inactive: -5.61%
CC1CCc2c(C(=O)NCc3cccnc3)csc2C1 (centres undefined),,inactive: -19.9%
O=C(COCc1ccccc1)N[C@@H]1c2ccccc2CC[C@@H]1OCc1ccccc1,"inconclusive [inhibitor, single point]",
O=C(O)c1ccccc1NS(=O)(=O)c1cccc(-n2sc3ccccc3c2=O)c1,"inconclusive [inhibitor, partial curve]",
COc1ccc(C(=O)NNC(=O)c2cc3ccccc3cc2O)cc1,"inconclusive [inhibitor, single point]",
COc1ccc(N=C2S/C(=C\c3cc(C)n(C)c3C)C(=O)N2C)cc1,active: 11.2 µM,
O=C(c1ccco1)N(Cc1cccc(F)c1)C1CCS(=O)(=O)C1 (centres undefined),,inactive: 7.07%
N#C/C(=C/c1ccc(N2CCCCC2)o1)c1cccc(F)c1,,inactive: -4.71%
O=CN/N=C/c1c(O)ccc2ccccc12,"inconclusive [inhibitor, single point]",
C=CCN(c1ccccc1)S(=O)(=O)c1cccc(C(=O)Nc2ccncc2)c1,"inconclusive [inhibitor, single point]",
CCc1nnc(NS(=O)(=O)c2ccc(NC(=S)NC(=O)c3ccc(F)cc3)cc2)s1,,inactive: 12.2%
CC(C)c1noc2ncc(C(=O)c3cc(Cl)cc(Cl)c3O)cc12,"inconclusive [inhibitor, single point]",
O=C(COC(=O)c1c[nH]c2ccccc12)NC1CCCCC1,"inconclusive [inhibitor, partial curve, poor fit]",
Cc1ccc(OCCC(=O)Nc2ccc(C)c(F)c2)cc1,"inconclusive [inhibitor, single point]",
Cc1ccc(Cl)cc1N1CCN(C(=O)CCCn2c(=O)c3cccn3c3cccnc32)CC1,"inconclusive [inhibitor, single point]",
CCOc1ccc(S(=O)(=O)N(CC(=O)NCc2ccncc2)c2ccc(C)cc2)cc1,,inactive: -16.2%
O=C(NC1CCCCC1)C(c1cccnc1)N(C(=O)CCl)c1ccccc1Cl (centres undefined),active: 3.16 µM,
O=C1NC(=O)C2(CCCc3ccc(N(CCCl)CCCl)cc32)N1 (centres undefined),,inconclusive: -30.7% [inhibitor]
CC(C)Cn1c(CCNC(=O)c2ccco2)nc2ccccc21,"inconclusive [inhibitor, partial curve]",
Cc1nc2cc(-c3cccc(F)c3)nn2c(C)c1CCC(=O)NC(C)c1ccc2c(c1)OCCO2 (centres undefined),"inconclusive [inhibitor, partial curve]",
CCC(C)C(=O)Nc1nnc(SCC(=O)NC(C)(C)C)s1 (centres undefined),,inactive: 0.639%
COC(=O)c1cc(NC2c3ccccc3C(=O)N2c2ccc(Cl)cn2)cc(C(=O)OC)c1 (centres undefined),"inconclusive [inhibitor, partial curve]",
CCCCCCSc1nsc(NC(=O)CCC)n1,"inconclusive [inhibitor, single point]",

Compound,Potency,"activity change, negative = inhibition"
O=C(NCCCN1CCOCC1)c1ccc(Cl)c(S(=O)(=O)N2CCCCCC2)c1,"inconclusive [inhibitor, single point]",
COc1cc(/C=N/Nc2nc(C)cc(C)n2)cc(OC)c1OC,,inactive: -23.5%
CCCc1c(C(=O)N2CCN(c3ccccc3OC)CC2)cnn1-c1ccccc1,"inconclusive [inhibitor, single point]",
O=C(N/N=C/c1cccc(F)c1)c1c(O)c2ccccc2[nH]c1=O,active: 12.6 µM,
Cn1ncc([N+](=O)[O-])c1C(=O)Nc1nc2ccccc2n1CCN1CCCCC1,,inactive: -18.1%
COc1ccc([N+](=O)[O-])cc1NC(=O)CCC(=O)c1cccs1,"inconclusive [inhibitor, single point]",
OC(c1ccccc1)C(CN1CCOCC1)c1ccccc1 (centres undefined),active: 12.6 µM,
CCOC(=O)C(=O)c1cn(C2OCC(OC(C)=O)C(OC(C)=O)C2OC(C)=O)c2ccccc12 (centres undefined),,inactive: 1.16%
COc1ccccc1N1CCN(C(=O)c2cc(-c3ccc(F)cc3)[nH]c2C)CC1,"inconclusive [inhibitor, partial curve]",
COCCn1nnnc1C(c1cccs1)N1CCN(c2ccccc2)CC1 (centres undefined),,inactive: 10.8%
COc1ccc(-c2nnc(OC)c3ccccc23)cc1,,inactive: -1.32%
COc1ccc2c(C)cc(SCC#N)nc2c1,"inconclusive [inhibitor, partial curve]",
O=C(Nc1ccn(Cc2ccccc2)n1)c1cccc(F)c1,"inconclusive [inhibitor, single point]",
O=C(Nc1ccon1)C(Sc1ccccc1)c1ccccc1 (centres undefined),"inconclusive [inhibitor, partial curve, poor fit]",
CC1(C)CC(N2CCN(C(c3ccccc3)c3ccccc3)CC2)=CC(=[N+]2CCCCC2)C1,active: 3.16 µM,
CCN1/C(=C/c2ccc3cc(C)cc(C)c3[n+]2CC)Sc2cc(C)ccc21,active: 7.08 µM,
CS(=O)(=O)N(Cc1ccc(C(=O)N2CCc3ccccc3C2)cc1)c1ccccc1,"inconclusive [inhibitor, partial curve]",
CCC1CCCCN1c1cc(C)nc2cc(-c3cccc(C)c3)nn12 (centres undefined),"inconclusive [inhibitor, single point]",
O=S(=O)(NCCOc1ccccc1Cl)c1ccc2oc3ccccc3c2c1,,inactive: -21.5%
CCOC(=O)c1cnc2c(C)c(C)ccc2c1NCCN1CCOCC1,"inconclusive [inhibitor, single point]",
CCn1c(SCC(=O)N2CCN(c3ccccc3)CC2)nc2c([nH]c3ccccc32)c1=O,"inconclusive [inhibitor, single point]",
O=C(c1ccccc1N(Cc1ccccc1)S(=O)(=O)c1ccccc1)N1CCOCC1,,inactive: 5.6%
O=C(O)c1ccc(C=C(c2nc3ccccc3s2)c2nc3ccccc3s2)cc1,,inactive: 5.29%
COc1cccc(OCCNc2ccc([N+](=O)[O-])cn2)c1,,inactive: 3.22%
Cc1ccccc1CN1Cc2cnnn2-c2ccccc2C1C#N (centres undefined),"inconclusive [inhibitor, single point]",

Compound,Potency,"activity change, negative = inhibition"
COc1ccc(OC)c(C(=O)COC(=O)c2[nH]c(C)c(C(C)=O)c2C)c1,"inconclusive [inhibitor, full curve]",
COc1ccc(NC(=O)C(CC(=O)O)Cc2ccccc2)cc1 (centres undefined),,inactive: 7.49%
COc1c(OC(C)=O)ccc(/C=C/c2ccc3cccc(OC)c3n2)c1[N+](=O)[O-],"inconclusive [inhibitor, full curve]",
CCOc1ccccc1C(=O)Nc1nnc(COC)s1,active: 7.08 µM,
O=C(c1ccc2c(c1)OCO2)N1CCC2(CC1)Oc1ccc(F)cc1C(=O)C21CC(c2ccc(Cl)cc2)=NO1 (centres undefined),active: 10 µM,
CCC[n+]1c(C)sc2c3c(ccc21)CCCC3,active: 7.08 µM,
FC(F)(F)c1cnc(Nc2ccc(N3CCOCC3)cc2)c(Cl)c1,,inactive: -0.506%
CC1CCCN(S(=O)(=O)c2ccc(C(=O)Nc3nnc(-c4ccco4)o3)cc2)C1 (centres undefined),"inconclusive [inhibitor, single point]",
COc1cccc(C(CNc2ccc(S(=O)(=O)N3CCN(C)CC3)cc2[N+](=O)[O-])N(C)C)c1 (centres undefined),"inconclusive [inhibitor, partial curve, poor fit]",
COc1ccc(C(=O)CCC(=O)N2CCN(c3ccc(C)cc3)C(C)C2)cc1 (centres undefined),"inconclusive [inhibitor, single point]",
O=C1/C(=C/c2ccc(Cl)cc2)SC(=S)N1CCC(=O)N1CCCCC1CCO (centres undefined),"inconclusive [inhibitor, single point]",
CC(=O)OCCOc1nc(NC(C)C)nc(NC(C)C)n1,,inactive: 14.9%
Cc1ccc(NS(=O)(=O)c2ccc3c(c2)NC(=O)CCS3)cc1F,,inactive: -9.87%
CCOC(=O)c1c(C)[nH]c(C)c1S(=O)(=O)N(C)CC(=O)Nc1ccccc1C,,inactive: 26.1%
Cc1onc(-c2ccccc2)c1C(=O)Nc1nc(-c2ccc(F)c(F)c2)cs1,"inconclusive [inhibitor, partial curve, poor fit]",
CC(=NCCC1=CCCCC1)c1c(O)n(C)c(=O)n(C)c1=O,"inconclusive [inhibitor, single point]",
Cc1nonc1N1CCN(Cc2cn[nH]c2-c2ccc(F)cc2F)CC1,,inactive: 15.7%
C/C(Cl)=C\Cn1c(NCCc2ccccc2)nc2c1c(=O)n(C)c(=O)n2C,active: 2.51 µM,
N#Cc1c(NC(=O)C(=O)NCCCN2CCOCC2)sc2c1CCC2,,inactive: 5.46%
CC(C)c1ccc(-c2nnn(CCC(=O)O)n2)cc1,,inactive: 32.9%
N#Cc1ccc(-c2ccc(OCC(O)Cn3nnc4ccccc43)cc2)cc1 (centres undefined),"inconclusive [inhibitor, single point]",
COc1ccc(C2CCCN2C(=O)Nc2ccc(F)cc2)cc1OC (centres undefined),"inconclusive [inhibitor, single point]",
CCOC(=O)C1=C(N)Oc2c(oc(CO)cc2=O)C1c1ccc(F)cc1 (centres undefined),"inconclusive [inhibitor, single point]",
Cc1ccc(N(CC(=O)Nc2cccc(C)c2)S(=O)(=O)c2cccc3nonc23)cc1,"inconclusive [inhibitor, single point]",
